Assay results as given in PubChem BioAssay AID1508623 (National Center for Advancing Translational Sciences (NCATS), 2021).
Screen size: about 48,000 compounds; about 450 (0.94%) were called active. Not shown: some 19% with an inconclusive outcome. Calls follow the shape of the dose curve; as a rule, active = well fitted inhibition curve with a large enough effect; inconclusive = small, poorly fitted or top-dose-only effect; inactive = no such curve, though single readings can be large or run the other way. The list shows a part of the results.

Assay: Primary qHTS for Identification of Small Molecule Inhibitors of Huntingtin Promoter Activity; also: nearly all actives have a fitted effect of over 50% in size
Conditions: HEK293 HTT promoter firefly luciferase reporter (activity 0% = vehicle and -100% = no light), 24 h; series mostly up to 57.5 µM; activity change, negative = inhibition: at the top concentration
Procedure, shortened: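 HEK293 cells carrying firefly luciferase reporters were seeded at 2,500 per well in Opti-MEM and cultured for 24 h. They were then treated with compounds at up to 57.5 uM final for 24 h at 37 degrees C before Dual-Glo luminescence readout.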
Potency is read from the fitted curve at half-maximal effect.

Activity change, negative = inhibition, inactive:
COc1cc(NC(=O)Nc2nnc(N3CCCCC3)s2)cc(OC)c1 -15.2%
CC1CCc2nc3ccc(S(=O)(=O)N4CCC(C(=O)NCc5ccccc5Cl)CC4)cc3c(C(=O)O)c2C1 (stereo unspecified) -25.8%
O=c1c2[nH]c3ccccc3c2nc(SCc2ccccc2F)n1-c1ccc(F)cc1 -13.3%
Cc1ccccc1OCC(=O)Nc1ccc(OCc2cc(=O)n3ccccc3n2)cc1 10.7%
Cc1ccc(CNC(=O)c2ccc3oc(=O)n(Cc4ccccc4)c3c2)cc1 -15.5%
COc1ccc(Cl)cc1NC(=O)C1CCCN(S(=O)(=O)c2ccc3c(c2)CCCC(=O)N3)C1 (stereo unspecified) -16.7%
O=C(CSc1nc2c(c(=O)[nH]1)CN(Cc1ccc3c(c1)OCO3)CC2)Nc1cc(F)ccc1F -32.7%
CCCCOC(=O)c1ccc(NC(=O)C2(c3cccs3)CCOCC2)cc1 -21.9%
COc1ccc(NC(=O)CSc2nc(-c3ccccc3)cc(-c3cc(OC)c(OC)c(OC)c3)c2C#N)c(OC)c1 -5.52%
CC(=O)N1CCc2cc(CNS(=O)(=O)c3cccs3)ccc21 48.6%
COc1ccc(-c2nnc(SCC(=O)Nc3cccc(C)c3)s2)cc1 -10.9%
CCOc1ccccc1N(C)C(=O)c1sc2nc3n(c(=O)c2c1C)CCCC3 -5.76%
COc1ccc(NC(=O)CSc2nccn2C2CCCC2)cc1OC -37.9%
Cc1nn(CC(=O)Nc2ccc(C(C)C)cc2)c(=O)c2c(C)n(-c3ccc(Cl)cc3)nc12 -9.78%
Cc1ccc(Cn2cc(S(=O)(=O)c3ccccc3)c(=O)c3cc(F)c(N4CCOCC4)cc32)cc1 -19.1%
Cn1ccc2cc(S(=O)(=O)N3CCN(C(=O)Nc4cccc(F)c4)CC3)ccc21 -27.3%
COc1ccc(NC(=O)C(c2ccc(OC)cc2)N(C)C(=O)Cc2cccs2)cc1 (stereo unspecified) -22.2%
CC(C)(Oc1ccc(Cl)cc1)C(=O)Nc1ccc(-c2nc3ncccc3o2)cc1 -0.153%
COc1ccccc1N1CCN(S(=O)(=O)CCNC(=O)c2cc(=O)c3ccccc3o2)CC1 -29.9%
COc1ccc2c(c1)c1c3n2CCN(C)C3=NCC1 -3.98%
CN(C)CCc1c[nH]c2ccc(Cn3cncn3)cc12 -8.45%
Cc1ccccc1C(=O)Nc1cccc(-c2nc3cccnc3s2)c1 -13.4%
CC(C)C(C)(C)C(C)(C)C(C)(C)S 9.65% [at 116 µM]
COc1ccc(Cn2ccc3nc(C)c(C(=O)Nc4ccc(OC)c(OC)c4)cc3c2=O)cc1 -12.1%
COc1cccc(N2CCN(C(=O)CCn3nc(C)c(S(=O)(=O)N4CCCC4)c3C)CC2)c1 -6.88%
O=C(CSc1nc(=O)n(Cc2ccncc2)c2c1CCC2)Nc1ccccc1 7.43%
CCCN(CCC)C(=O)c1c[nH]c2ccc(S(=O)(=O)N(C)c3ccc(Cl)cc3)cc2c1=O -24.2%
O=c1c(S(=O)(=O)c2ccccc2)cn(Cc2ccc(F)cc2)c2cc(N3CCCC3)c(F)cc12 -17.8%
COc1cccc(CNC(=O)C2CCC(CNS(=O)(=O)c3cccs3)CC2)c1 (stereo unspecified) 5.62%
CCCC(=O)N(c1ccc2oc3c(c2c1)CCCC3)S(=O)(=O)c1ccc(CC)cc1 -6.85%
Cc1ccccc1NC(=O)c1ccc(NC(=O)N2CCSc3ncccc32)cc1 -7.4%
COc1cccc(NC(=O)c2sc(-n3nc(C)c(Cc4ccccc4Cl)c3C)nc2C)c1 -6.19%
CC1CCN(S(=O)(=O)c2ccc3c(c2)N(CC(=O)NCc2ccccc2Cl)C(=O)CO3)CC1 -14.8%
COc1ccc(OC)c(-n2c(=O)[nH]c3cc(C(=O)NCCc4ccc(OC)c(OC)c4)ccc3c2=O)c1 -13.3%
COc1ccc(NCc2nc3ccccc3n2CCOc2ccccc2C)cc1 -18%
COc1ccc(C=Cc2cc(OC)c(OC)c(OC)c2)cc1NC(=O)[C@H](N)CO -26%
COCCn1c(C)cc(O)c(C(c2ccccc2)N2CCN(c3ccc(F)cc3)CC2)c1=O (stereo unspecified) -6.98%
Cc1ccc(N(C)C(=O)Cn2nc(Cc3ccncc3)c3ccccc3c2=O)cc1C -1.57%
O=C(Nc1ccc(F)cc1)c1ccc(-n2cnc3cccnc32)cc1 -10.4%
O=C(NCCc1ccc(Cl)cc1)c1ccc(CS(=O)(=O)Cc2ccc(F)cc2)o1 -0.592%
COC(=O)c1c(SC)nc2ccccc2c1OCc1cccc(C)c1 -16.4%
CCC(CC)C(=O)Nc1cccc(-c2nc3cccnc3s2)c1 -5.62%
COc1cccc(COC(=O)c2nn(-c3ccccc3)nc2N)c1 4.01%
CNC(=O)C1CCC(Cn2c(=O)c3sccc3n(Cc3ccccc3)c2=O)CC1 (stereo unspecified) -0.696%
COc1ccccc1CCNC(=O)c1cc2c(=O)n3cccc(C)c3nc2n1C 31.9%
CCOc1ccc(-c2nc(Cn3c(=O)cc(-c4ccccc4)c4c(C)nn(C)c43)c(C)o2)cc1OC 0%
Cc1ccc(CNC(=O)C2CCN(c3nn4cc(-c5ccc(F)cc5)nc4s3)CC2)cc1 16%
CCN(CC)c1ccc(NC(=O)CCS(=O)(=O)c2cccc3nsnc23)c(C)c1 -4.08%
Cc1cc(S(=O)(=O)Nc2cc3c(cc2C)n(C)c(=O)c(=O)n3C)ccc1F -16.4%
CCSC1=NC2(CCN(C(=O)NC3CCCCC3)CC2)N=C1c1ccc(C)cc1 -14% [at 11.5 µM]
Cc1ccccc1NC(=O)CSc1ncc2c(n1)-c1ccccc1N(C)S2(=O)=O -33.8%
Cc1cc(C)c2c(n1)nn1c(C)c(CCC(=O)Nc3ccc(C)c(Cl)c3)c(C)nc21 -5.81%
Cc1cn2c(=O)cc(COC(=O)c3cccc(NC(=O)C(C)Oc4ccccc4)c3)nc2s1 (stereo unspecified) -29%
CCOc1ccccc1NC(=O)c1c(NC(=O)C(C)Oc2cccc(Cl)c2)sc2c1CCCCC2 (stereo unspecified) -11.5%
CCOc1ccc(CC(=O)Nc2c(C(=O)c3ccc(Cl)cc3)oc3ccccc23)cc1OCC 4.52%
CCn1c(Oc2ccc(F)cc2F)nc2c1c(=O)n(C)c(=O)n2C -15.1%
CC1=C(C(=O)Nc2ccc(Cl)cc2)C(c2cccs2)n2nc(SCc3cccc(Cl)c3)nc2N1 (stereo unspecified) -0.713%
Cc1cccc(S(=O)(=O)c2cn(Cc3ccccc3)c3cc(N4CCC(C)CC4)c(F)cc3c2=O)c1 -25.3%
CCc1cc2c(cc3c(=O)n(CC(=O)NCc4cccc(Cl)c4)nc(CC)n32)s1 8.42%
CCC1=Nc2cc(C(=O)NCCc3ccccc3)ccc2Sc2ccc(Cl)cc21 -20.9%
COc1ccc(Nc2cc(C(=O)NCCCN(C)Cc3ccccc3)c3ccccc3n2)cc1OC -24.3%
COc1ccc(-n2nc3cc(C)c(NC(=O)COc4cccc(C)c4)cc3n2)cc1 2.4%
COc1cccc(OCc2nc3ccccc3n2Cc2ccccc2)c1 0.254%
COc1ccc(NC(=O)c2sc3nc(C)c(C(=O)Nc4ccc(C)cc4C)c(-c4ccc(C)o4)c3c2N)cc1 6.59%
Cc1ccc(Nc2nc(C)cc(C)n2)c(C(=O)O)c1 -10.7%
CC1(C)CC(=O)c2cc(-c3nc(-c4ccc(Cl)cc4)cs3)c(=O)n(-c3ccc(Cl)cc3)c2C1 -17.9%
C#CC(C)(CC)NC(=O)c1cnn2c(C(F)F)cc(-c3ccccc3OC)nc12 (stereo unspecified) 3.75%
Cc1cc(C)n(CCc2nc3c4ccccc4nc(N4CCN(c5ccccc5F)CC4)n3n2)n1 -12.4%
Cc1ccc(NC(=O)/C(C#N)=C/c2ccc(C)o2)cc1 92%
CC(C)CCNC(=O)c1ccc2c(c1)NC(=O)C(CS(=O)(=O)Cc1cccc(Br)c1)N2 (stereo unspecified) 6.54%
Cc1ccc(Cn2ccnc2SCC(=O)NCc2ccc(F)cc2)cc1 -23.9%
COc1ccc(NC(=O)CSc2nc3ccccc3n2CC(=O)N(C)c2ccc(F)cc2)cc1 -29.9%
CN1C(=O)C2(SCC(=O)N2c2cccc(C(F)(F)F)c2)c2ccccc21 (stereo unspecified) -31.3%
CCOC(=O)C1CCC(CN(Cc2ccc(Cl)cc2)S(=O)(=O)c2ccc(Br)cc2)CC1 (stereo unspecified) 13.7%
CCOC(=O)C1CCN(CC(=O)N2CCCc3c2c(=O)oc2ccc(OCc4ccccc4)cc32)CC1 -11.6%
CC(=O)Oc1cccc(O)c1 -1.74%
CCCN1CCN(CCNC(=O)Nc2ccc(OC)c(OC)c2)CC1 -4.94%
CCOc1ccc(NC(=O)c2cn(C)c(=O)c3cc(OC)c(OC)cc23)cc1 33.1%
CCS(=O)(=O)N1CC(=O)N(c2cccc(Cl)c2C)C(C)(C(=O)NC2CCCCC2)C1 (stereo unspecified) -7.23%
CCCc1c(OCCCCc2nn[nH]n2)ccc(C(C)=O)c1O -0.42%
COCCNC(=O)CCCN1C(=O)c2ccccc2Sc2ncccc21 -7.05%
Cc1ccc(NC(=O)c2oc3ccc(S(=O)(=O)N(C)C4CCCCC4)cc3c2C)cc1Cl -11.5%
O=S(=O)(c1cccc(F)c1)N1CCC(c2nc3ccccc3s2)CC1 -15.8%
CCCCN(CCCC)CC(O)Cn1cc(/C=C/C(=O)c2ccccc2)c2ccccc21 (stereo unspecified) -27.1%
COc1cccc2c1cc1c(=O)n(CC(=O)NC3CC3)nc(C)n12 2.5%
O=c1c(=O)n(-c2cccc(Cl)c2)ccn1Cc1cccc(F)c1 -22.6%
CC(=O)N1CCc2cc(S(=O)(=O)NC(CC(C)C)C(=O)NCc3ccccc3)ccc21 (stereo unspecified) -8.86%
Cc1nnc(SCC(=O)Nc2ccc(Br)cc2)[nH]c1=O -21%
CCCCC(CC)CNC(=O)CCCn1c(=O)[nH]c2ccsc2c1=O (stereo unspecified) -21%
COc1ccc(C)cc1Nc1nc(-c2cccc(Cl)c2)c2c(n1)-c1ccccc1OC2 -12.9%
Cc1ccc(-c2nc(N3CCN(c4ccccc4Cl)CC3)c3ccccc3n2)cc1 -6.77%
CCOc1ccc(NC(=O)C(NC(=O)C2CCC(C)CC2)C(C)C)cc1 (stereo unspecified) 0.232%
CCOC(=O)c1cc(-c2ccccc2)n(CC(=O)N(C)c2ccc(OC)cc2)c1C -20.2%
COc1ccc(CNC(=O)CN(c2ccccc2)S(=O)(=O)N(C)C)cc1 2.67%

Potency, active:
Cc1nn(-c2ccccc2)c2c1N(CCCC(=O)NCc1ccc(OC(C)C)cc1)C(=O)CS2 14.1 µM
CCCN(c1ccccc1CC)S(=O)(=O)c1ccc2c(c1)CC(C)N2C(=O)C1CC1 (stereo unspecified) 22.4 µM
